{"source": "PubChem BioAssay AID759", "about": "(NMMLSC, 2007)", "note": "About 270 (0.14%) of roughly 190,000 compounds were called active. Inconclusive means that the source gave no clear call. Such entries were picked first, then a sample of the others.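 The calls were made as follows: active = GTP binding activity at least 20% away from the 100% baseline, either lowered as inhibitor or raised as activator; inconclusive = flagged as likely green fluorescent, judged across all proteins in the well; inactive = the rest.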", "data": [{"molecular_target": "GTPase HRas (Homo sapiens) (UniProt P01112)", "sequence (P01112 whole entry, looked up)": "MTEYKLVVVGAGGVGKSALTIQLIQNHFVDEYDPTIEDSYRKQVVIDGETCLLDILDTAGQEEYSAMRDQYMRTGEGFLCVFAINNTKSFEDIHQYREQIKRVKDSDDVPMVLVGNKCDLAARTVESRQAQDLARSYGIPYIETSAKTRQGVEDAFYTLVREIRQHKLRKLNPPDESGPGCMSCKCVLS", "assay": "HRas wt fluorescent GTP binding changes, either direction – biochemical, wildtype, bead-based flow cytometry, multiplex, primary screen (AID 759);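 also: 0% = unlabeled GTP competition control and 100% = no-compound control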", "settings": "GST-Ras wt beads, Bodipy-FL-GTP binding, at 10 µM, actives lie on both sides", "values": [{"compound": "O=C(NNc1nc(-c2ccccc2)c2cc(Br)ccc2n1)c1ccc(S(=O)(=O)N2CCOCC2)cc1", "GTP binding activity": "inactive: 81%"}, {"compound": "O=c1cc(CSc2nnnn2-c2ccccc2)nc2sccn12", "GTP binding activity": "inconclusive: 91%"}, {"compound": "O=c1c2c3c(sc2n(CCN2CCOCC2)c(=O)n1Cc1ccco1)CCCCC3", "GTP binding activity": "inconclusive: 103%"}, {"compound": "Cc1ccc(CN(Cc2ccccc2)C(=S)Nc2ccccc2C)o1", "GTP binding activity": "inactive: 103%"}, {"compound": "CCCC(=O)n1nc(-c2cccnc2)nc1NCc1ccccc1", "GTP binding activity": "inactive: 97%"}, {"compound": "COc1cc(C(=O)OCC(=O)Nc2cc(C)on2)cc(OC)c1OC", "GTP binding activity": "inconclusive: 103%"}, {"compound": "CCOc1ccc(NC(=S)N(CC)Cc2ccccc2)cc1", "GTP binding activity": "inactive: 95%"}, {"compound": "CC(=O)N1CCc2cc(S(=O)(=O)NC(C(=O)NCc3ccccc3)C(C)C)ccc21", "note": "(stereo not drawn)", "GTP binding activity": "inconclusive: 103%"}, {"compound": "CC(=O)c1c(C)[nH]c(C(=O)N2CCc3ccccc3C2)c1C", "GTP binding activity": "inconclusive: 113%"}, {"compound": "Cc1ccccc1C(=O)Nc1cccc(C(=O)N/N=C/c2cc(Cl)cc([N+](=O)[O-])c2O)c1", "GTP binding activity": "inactive: 80%"}, {"compound": "CCCC/C(O)=C1\\C(=O)CC(C)(C)CC1=NCCCCCC(=O)O", "GTP binding activity": "inconclusive: 89%"}, {"compound": "COc1ccc(-c2nnn(CC(=O)NCc3ccc4c(c3)OCO4)n2)cc1OC", "GTP binding activity": "inconclusive: 91%"}, {"compound": "O=C(NCc1n[nH]c(=S)n1-c1ccc(Br)cc1)c1ccc(S(=O)(=O)N2CCOCC2)cc1", "GTP binding activity": "inactive: 97%"}, {"compound": "CCN(CC)c1ccc(NS(=O)(=O)c2ccc(OC)cc2)cc1", "GTP binding activity": "inactive: 101%"}, {"compound": "CCOC(=O)c1c(NC(=O)C2CC(Cl)=CCC2C(=O)O)sc2c1CC(C)(C)OC2", "note": "(stereo not drawn)", "GTP binding activity": "inconclusive: 95%"}, {"compound": "COC(=O)C1CCN(CC(N)=O)CC1", "GTP binding activity": "inconclusive: 107%"}, {"compound": "Cc1ccc(S(=O)(=O)N2CCN(c3nc(C)nc4sc5c(c34)CCC(C)C5)CC2)cc1", "note": "(stereo not drawn)", "GTP binding activity": "inconclusive: 94%"}, {"compound": "COc1ccc(CC(=O)Nc2ccc(-c3ccc4nnc(C)n4n3)cc2)cc1OC", "GTP binding activity": "inactive: 92%"}, {"compound": "COc1cccc(/C=C/C(=O)OCC(=O)Nc2ccc(Cl)cn2)c1", "GTP binding activity": "inactive: 88%"}, {"compound": "Cc1ccc(C=NCc2ccncc2)c(O)c1", "GTP binding activity": "inconclusive: 106%"}, {"compound": "CC1=C2C(=O)OC(c3ccoc3)C2(C)CCC1", "note": "(stereo not drawn)", "GTP binding activity": "inconclusive: 103%"}, {"compound": "Cc1coc(=N)n1CC(=O)c1ccc(Cl)cc1", "GTP binding activity": "inactive: 95%"}, {"compound": "CCOc1ccc2oc(-c3ccccc3)c(C(=O)N3CCN(C)CC3)c2c1", "GTP binding activity": "inconclusive: 106%"}, {"compound": "COCCCNC(=O)C12CCC(C)(C(=O)C1)C2(C)C", "note": "(stereo not drawn)", "GTP binding activity": "inconclusive: 93%"}, {"compound": "CC(C)C(C(=O)O)N1C(=O)/C(=C/c2cccn2C)SC1=S", "note": "(stereo not drawn)", "GTP binding activity": "inconclusive: 93%"}, {"compound": "Cc1ccccc1OCC(=O)N1N=C(c2cccnc2)CC1(O)C(F)(F)F", "note": "(stereo not drawn)", "GTP binding activity": "inconclusive: 100%"}, {"compound": "O=C(O)/C=C/C(=O)NC1CCS(=O)(=O)C1", "note": "(stereo not drawn)", "GTP binding activity": "inconclusive: 100%"}, {"compound": "COc1cccc(CNC(=O)CCC2CCCN(C(=O)c3cc(C4CC4)[nH]n3)C2)c1", "note": "(stereo not drawn)", "GTP binding activity": "inactive: 98%"}, {"compound": "COC(=O)c1cc2occc2n1Cc1c(F)cccc1Cl", "GTP binding activity": "inconclusive: 90%"}, {"compound": "Cn1c(SCc2cc(=O)[nH]c3ccccc23)nnc1-c1ccco1", "GTP binding activity": "inconclusive: 103%"}, {"compound": "COCCn1c(-c2ccc(-c3ccc([N+](=O)[O-])cc3Br)o2)nc2c1c(=O)[nH]c(=O)n2CC(C)C", "GTP binding activity": "inactive: 90%"}, {"compound": "Cc1cc(C(=O)COC(=O)CCC(=O)c2ccc3c(c2)OCCO3)c(C)n1Cc1ccco1", "GTP binding activity": "inconclusive: 91%"}, {"compound": "CCCC(=O)c1cc2c(cc1NC(=O)c1ccccc1F)OCCO2", "GTP binding activity": "inactive: 97%"}, {"compound": "Cn1nc(C(=O)OCC(=O)Nc2ccc3ccccc3c2)c2ccccc2c1=O", "GTP binding activity": "inconclusive: 91%"}, {"compound": "CCOc1ccc(S(=O)(=O)N/N=C(\\C)c2ccc(Cl)c(Cl)c2Cl)cc1", "GTP binding activity": "inconclusive: 90%"}, {"compound": "CCC(C)(C(=O)NC1CCCC1)N(C)C(=O)c1ccccn1", "note": "(stereo not drawn)", "GTP binding activity": "inactive: 97%"}, {"compound": "O=C(NCc1cccnc1)c1ccc(-c2cccc(Cl)c2Cl)o1", "GTP binding activity": "inconclusive: 92%"}, {"compound": "C=CCn1c(C)cc(C(=O)COC(=O)/C=C/c2cccc(OC)c2)c1C", "GTP binding activity": "inconclusive: 86%"}, {"compound": "CCCC(CCC(=O)Nc1cc([N+](=O)[O-])ccc1O)C(=O)O", "note": "(stereo not drawn)", "GTP binding activity": "inconclusive: 91%"}, {"compound": "O=C(N/N=C\\c1ccc(F)cc1)c1cc(OCC(F)(F)F)ccc1OCC(F)(F)F", "GTP binding activity": "inconclusive: 102%"}, {"compound": "N#CC(C#N)=Cc1ccc(-c2ccc(S(=O)(=O)N=C(N)N)cc2)o1", "GTP binding activity": "inconclusive: 90%"}, {"compound": "O=C(c1ccco1)N(Cc1ccccc1)Cc1ccccn1", "GTP binding activity": "inactive: 96%"}, {"compound": "Cc1cc(C)nc(NC(=O)COc2cc(Cl)cc(Cl)c2)n1", "GTP binding activity": "inconclusive: 104%"}, {"compound": "O=C(Nc1ccc(N2CCOCC2)nc1)c1ccc(C(F)(F)F)cc1", "GTP binding activity": "inconclusive: 91%"}, {"compound": "O=C(NN=C1CCCC1)c1sc2ccccc2c1Cl", "GTP binding activity": "inconclusive: 94%"}, {"compound": "CCOC(=O)C1=C(c2ccccc2)Nc2nc(C)nn2C1c1cccc(OC)c1OC", "note": "(stereo not drawn)", "GTP binding activity": "inactive: 98%"}, {"compound": "O=C(Nc1nc(-c2ccc(S(=O)(=O)N3CCCCCC3)cc2)cs1)c1ccccc1", "GTP binding activity": "inconclusive: 94%"}, {"compound": "O=C1CS/C(=N/N=C2C3CC4CC(C3)CC2C4)N1", "GTP binding activity": "inconclusive: 136%"}, {"compound": "O=C(N/N=C/c1ccc(-c2ccccc2[N+](=O)[O-])o1)[C@H]1C[C@@H]1c1ccccc1", "GTP binding activity": "inconclusive: 94%"}, {"compound": "N#CCCN(C(=O)COC(=O)c1cccc(S(=O)(=O)Nc2ccc([N+](=O)[O-])cc2)c1)c1ccccc1", "GTP binding activity": "inconclusive: 96%"}, {"compound": "O=C(CCn1c(=O)[nH]c2ccsc2c1=O)NCc1ccc(F)cc1", "GTP binding activity": "inactive: 99%"}, {"compound": "CCN(CC)C(=S)SCC(=O)Nc1nc(=O)c2ccccc2s1", "GTP binding activity": "inactive: 96%"}, {"compound": "COc1ccc2nc(N3CCCC3)c(C#N)cc2c1", "GTP binding activity": "inconclusive: 93%"}, {"compound": "COc1ccc(N(CC(=O)Nc2ccc3c(c2)OCO3)S(=O)(=O)c2ccc(C)cc2)cc1OC", "GTP binding activity": "inconclusive: 103%"}, {"compound": "COc1cc(/C=N/NS(=O)(=O)c2ccccc2)ccc1OS(=O)(=O)c1ccc(C)cc1", "GTP binding activity": "inconclusive: 103%"}, {"compound": "COC(=O)CNC(=O)COC(=O)Cc1ccc(Cl)cc1", "GTP binding activity": "inactive: 97%"}, {"compound": "COc1ccc(C)cc1S(=O)(=O)N(C)CC(=O)NC1CC1", "GTP binding activity": "inconclusive: 102%"}, {"compound": "O=C(c1cccc2ccccc12)N1CCN(c2ccccc2F)CC1", "GTP binding activity": "inconclusive: 104%"}]}]}
